# Laboratory results: PubChem BioAssay AID686978 (National Center for Advancing Translational Sciences (NCATS), 2013)
# In all, about 420,000 compounds went through this assay and about 64,000 (15%) were called active. The shares of active, inactive and inconclusive entries below differ from those in the screen. The call rests on the fitted dose curve; in most records, active means well fitted inhibition curve with a large enough effect; inconclusive means small, poorly fitted or top-dose-only effect; inactive means flat fitted curve, though single readings scatter. Potencies of inconclusive entries are left out as doubtful fits. The source holds several records for some structures; these can differ, active in one and inactive in another.
# Assay: qHTS for Inhibitors of human tyrosyl-DNA phosphodiesterase 1 (TDP1): qHTS in cells in absence of CPT; further: nearly all actives have a fitted effect of over 55% in size
# Settings: DT40 Tdp1-/- hTDP1 cells, no CPT, ATP luminescence, 48 h; activity change, negative = growth inhibition: at 46.2 µM (top of the series)
# Summary of the method: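 Chicken DT40 Tdp1-/- cells complemented with human TDP1, screened without camptothecin (DMSO vehicle only), 400 cells/well. Compounds pin-transferred, cells incubated at 37 °C for at least 48 hr. Growth read as ATP-dependent luminescence (CellTiter-Glo, 30 min at RT).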
# On the % scale 0 is the no-effect control and ±100 the full control effect; potency means the concentration at half of the fitted maximal effect; tags describe the fitted curve by direction and shape.
Compound,Potency,"activity change, negative = growth inhibition"
Cc1nc2ccc(NC(=O)c3c(-c4ccccc4)noc3C)cc2s1,"inconclusive [inhibitor, full curve, poor fit]",–
CN(CC(=O)Nc1cccc(F)c1)C(=O)CCc1nc2cc(S(=O)(=O)N3CCOCC3)ccc2n1C,–,inactive: -1.56%
CC(C)(C)c1ccc(C(=O)NC(=S)NCC2CCCO2)cc1 (configuration not stated),–,inactive: 3.59%
CCN1C[C@@H]2[C@@H]3C(=O)N(C)C(=O)[C@@H]3[C@](Cc3ccccc3)(C(=O)OC)N2C1=NC1CCCCC1,active: 20.6 µM,–
CCOc1ccc2nc(N(CCN(CC)CC)C(=O)c3cccc([N+](=O)[O-])c3)sc2c1,"inconclusive [inhibitor, single point]",–
CC1(C(=O)NS(=O)(=O)c2ccc3ccccc3c2)CCN1C(=O)CC1CCCCC1 (configuration not stated),–,inactive: 9.66%
CC(C)OC(=O)CSc1nnc(-c2ccc(O)cc2)n1Cc1ccccc1,–,inactive: -26.5%
CC(C)n1c(O)c(N=NC(=O)C2COc3ccccc3O2)c2ccccc21 (configuration not stated),"inconclusive [inhibitor, single point]",–
N#Cc1nc(Cc2cccc3ccccc23)oc1N1CCN(c2ccccc2)CC1,"inconclusive [inhibitor, full curve, poor fit]",–
CCOc1ccc(CN2CCc3nc(Nc4ccc(OC)cc4OC)ncc3C2)cc1,"inconclusive [inhibitor, single point]",–
C/C(=N\NC(=O)c1c(C)nc2ccccn12)c1cccc([N+](=O)[O-])c1,"inconclusive [inhibitor, partial curve, poor fit]",–
COC(C(=O)Nc1ccnn1C1CCN(Cc2ccc(Cl)s2)CC1)c1ccccc1 (configuration not stated),"inconclusive [inhibitor, single point]",–
O=c1c([N+](=O)[O-])cn(Cc2ccccc2)c(=O)n1Cc1ccccc1,"inconclusive [inhibitor, single point]",–
COc1ccc(NC(=O)CN2c3cccc4cccc(c34)S2(=O)=O)c(OC)c1,"inconclusive [inhibitor, single point]",–
Cc1ccc2sc(NC(=O)c3ccc4c(c3)OCCO4)nc2c1C,"inconclusive [inhibitor, partial curve, poor fit]",–
CCOC(=O)c1c(-c2ccc(C)cc2)csc1NC(=O)C1CCCO1 (configuration not stated),active: 25.9 µM,–
CCN(CC)C(=O)CN(c1cccc(OC)c1)S(=O)(=O)c1ccc(C)cc1,"inconclusive [inhibitor, single point]",–
Cc1ccc(C(=O)NNC(=S)Nc2cccc(Cl)c2Cl)cc1[N+](=O)[O-],"inconclusive [inhibitor, full curve, poor fit]",–
CC(=O)Oc1ccccc1C(=O)N1CCN(S(=O)(=O)c2ccc3ccccc3c2)CC1,"inconclusive [inhibitor, partial curve, poor fit]",–
CSc1nc(-c2ccc(Cl)cc2)nc(N)c1C#N,–,inactive: -0.19%
CCC(=O)Nc1cccc(C(=O)OCc2cc(=O)n3nc(CC)sc3n2)c1,"inconclusive [inhibitor, partial curve, poor fit]",–
O=[N+]([O-])c1ccc(Sc2cccc3cccnc23)c2cccnc12,active: 25.9 µM,–
CNS(=O)(=O)c1cc(Nc2ncnc3sccc23)ccc1C,"inconclusive [inhibitor, single point]",–

Compound,Potency,"activity change, negative = growth inhibition"
CCN(CC)CCCNC(=O)c1nn(C)c2c1CS(=O)(=O)c1ccccc1-2,–,inactive: 1.11%
COc1cc(CNc2ncnc3c2ncn3[C@H]2CN(Cc3ccccc3)C[C@@H](COC(C)=O)O2)cc(OC)c1OC,active: 16.4 µM,–
CCOC(=O)c1[nH]c2ccc(OC)cc2c1NS(=O)(=O)c1ccc(OC)cc1OC,"inconclusive [inhibitor, single point]",–
CCSC1=NC2(CCN(C(=O)NC3CCCCC3)CC2)N=C1c1ccc(Cl)cc1,–,inactive: -3.01%
COc1ccc(N(CC(=O)Nc2ccccc2F)S(=O)(=O)c2ccc(OC)c(OC)c2)cc1,"inconclusive [inhibitor, partial curve]",–
Cc1ccc(-n2c(SCc3ccc([N+](=O)[O-])cc3)nc3ccccc3c2=O)cc1,"inconclusive [inhibitor, partial curve]",–
O=[N+]([O-])c1cccc2c(S(=O)(=O)N3CCOCC3)cccc12,"inconclusive [inhibitor, single point]",–
CC(Sc1nnnn1-c1ccccc1)C(=O)NC1CCCC1 (configuration not stated),–,inactive: -12%
CCOC(=O)c1ccc(Oc2c(C)oc3c(CN4CCN(C)CC4)c(O)ccc3c2=O)cc1,–,inconclusive: -24.1% [inhibitor]
O=[N+]([O-])c1ccc(/C=N\O)o1,"inconclusive [inhibitor, single point]",–
COc1cc2[nH]c(=O)c(C(=O)NCCCN3CCCCC3)c(O)c2cc1OC,"inconclusive [inhibitor, single point]",–
Cc1cc(C)n(NC(=S)NC2CCCCC2)c(=O)c1C#N,–,inactive: -18.4%
CCCN1CNc2c(c(=O)[nH]c(=S)n2CCc2ccc(C)c(C)c2)C1,"inconclusive [inhibitor, single point]",–
COc1ccc(S(=O)(=O)N2CCN(CC(=O)c3[nH]c(C)c(C(C)=O)c3C)CC2)cc1OC,"inconclusive [inhibitor, single point]",–
COc1ccc(C2Nc3ccccc3C(=O)N2c2ccc(C)cc2)cc1Cn1cc([N+](=O)[O-])cn1 (configuration not stated),"inconclusive [inhibitor, single point]",–
CCOc1ccc(NC(=O)c2ccccc2NC(=O)c2cccnc2)cc1,–,inactive: 3.12%
Cc1ccn2cc(-c3cccc(S(=O)(=O)N4CCCCC4)c3)nc2c1,–,inactive: -20.8%
O=C(Nc1ccccn1)C1CCN(S(=O)(=O)c2ccccc2)CC1,–,inactive: -16.5%
COc1cccc2sc3ccc(NCc4ccc5c(c4)OCO5)cc3c(=O)c12,"inconclusive [inhibitor, single point]",–
N#CCCn1cc(/C=N/NC(N)=S)c(-c2ccccc2)n1,"inconclusive [inhibitor, single point]",–
CCN(CC)c1ccc2cc(C(N)=O)/c(=N\NC(=O)c3ccncc3)oc2c1,"inconclusive [inhibitor, partial curve]",–
c1ccc2c(Nc3ccc(N4CCOCC4)cc3)nc(N3CCOCC3)nc2c1,active: 20.6 µM,–
O=C1/C(=C/c2ccccn2)SC(=S)N1CCc1ccccc1,"inconclusive [inhibitor, partial curve]",–

Compound,Potency,"activity change, negative = growth inhibition"
O=S1(=O)CCN2C(=N1)Sc1c2ccc2c1CCCC2,–,inactive: -14.4%
COc1ccc(C(=O)N(CC(=O)Nc2sc(C)c(C)c2C(N)=O)C2CCCC2)cc1,"inconclusive [inhibitor, single point]",–
CC(C)(C)CC(C)(C)N=C1NS(=O)(=O)c2cc([N+](=O)[O-])ccc21,active: 14.6 µM,–
CCOC(=O)c1c(C)[nH]c(C(=O)Cn2nnc(-c3ccc(Cl)cc3)n2)c1C,–,inconclusive: -45.7% [inhibitor]
COc1cccc(NC(=O)c2ccc(NCCCN3CCC(C)CC3)c([N+](=O)[O-])c2)c1,active: 16.4 µM,–
O=C(CN(Cc1ccco1)C(=O)CNS(=O)(=O)c1ccc(Cl)cc1)NCc1ccco1,–,inactive: -7.11%
Cc1oc2ncn(C)c(=O)c2c1C(=O)N1CCN(c2ccccc2F)CC1,–,inactive: -4.34%
O=[N+]([O-])c1cc([N+](=O)[O-])c(N2CCCCCC2)cc1NCCO,"inconclusive [inhibitor, single point]",–
CCOc1ccc2oc(C(=O)OCC(=O)N3CC(C)OC(C)C3)c(C)c2c1 (configuration not stated),"inconclusive [inhibitor, single point]",–
O=C(c1ccccn1)c1cc2ccccc2n1S(=O)(=O)c1ccccc1,"inconclusive [inhibitor, single point]",–
COC(=O)CNC(c1ccccc1)c1cc(C)ccc1NS(=O)(=O)c1ccc(C)cc1 (configuration not stated),"inconclusive [inhibitor, single point]",–
O=S(=O)(c1ccccc1)N(CC(O)COc1ccccc1)c1ccccc1 (configuration not stated),"inconclusive [inhibitor, single point]",–
COc1ccc(CN(C)C(=O)COC(=O)c2ccc3c(c2)OCO3)cc1OC,–,inactive: -7.47%
C=C(C)CNC(=S)NNC(=O)CCn1c2ccc(Cl)cc2c2cc(Cl)ccc21,"inconclusive [inhibitor, single point]",–
Cc1ccc(C(=O)NCCc2nnc3n2CCN(Cc2cc(C)cc(C)c2)CC3)cc1,"inconclusive [inhibitor, single point]",–
Cc1ccccc1C(=O)N1CCC(C(=O)N2CCCc3ccccc32)CC1,"inconclusive [inhibitor, single point]",–
NC1=NC(=Nc2ccc(Cl)cc2)c2ccccc21,–,inactive: -29%
O=C(Nc1ccc(F)cc1)C(c1cccc(F)c1)N1CCN(Cc2c(F)cccc2Cl)CC1 (configuration not stated),"inconclusive [inhibitor, single point]",–
COC(=O)C1=C(C)N(Cc2ccccc2)C(=O)/C1=C\c1ccco1,active: 18.4 µM,–
Cc1cccc(NS(=O)(=O)c2ccc3c(c2)C(C)(C)C(=O)N3C)c1,–,inactive: -28.7%
CON=C1C[C@]2(C[C@@H]3C[C@@H](C/C=C(\C)C[C@@H](C)/C=C/C=C4\CO[C@@H]5[C@H](O)C(C)=C[C@@H](C(=O)O3)[C@]45O)O2)O[C@H](/C(C)=C/C(C)C)[C@H]1C,active: 21.1 µM,–
